Reference: PubChem BioAssay AID602293 (National Center for Advancing Translational Sciences (NCATS), 2012)
Out of some 1,300 compounds screened, about 30 (2%) were called active. Not shown: some 10% with an inconclusive outcome. Calls come from the whole dose curve; as a rule, active = well fitted inhibition curve with a large enough effect; inconclusive = small, poorly fitted or top-dose-only effect; inactive = flat fitted curve, though single readings scatter. Some of the results follow.

Experiment: qHTS for antagonists of the Thyroid Stimulation Hormone Receptor: Hit Validation in HTRF Activity in a Luteinizing Hormone Receptor Cell Line
Settings: LHR-expressing cell line, cAMP HTRF, antagonist mode; series mostly up to 58 µM; activity change, negative = inhibition: at the top concentration
Procedure, shortened: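 HEK 293 cells stably expressing LH receptor, in DMEM with 10% FCS and 100 uM RO 20-1724, incubated with compound 30 min at room temperature. cAMP measured by competitive HTRF (anti-cAMP cryptate vs cAMP-d2), excitation 330 nm, emissions 615 and 660 nm.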
% is set by controls: 0 for no effect and ±100 for the full control effect.

Activity change, negative = inhibition, inactive:
CCCN1CCN(CCCNC(=O)Cn2nc(C)n3c(cc4cc(OC)ccc43)c2=O)CC1 -0.0841%
O=C(NC1CCCCC1)C(c1cccs1)N(Cc1cccs1)C(=O)c1cccs1 (configuration not stated) -9.17%
O=c1[nH]cccc1-c1nc2ccccc2n1Cc1ccc(F)cc1 0.695%
COC(=O)c1c(NC(NC(C)=O)C(Cl)(Cl)Cl)sc2c1CCCC2 (configuration not stated) 1%
COc1ccc(S(=O)(=O)Nc2ccccc2C(=O)Nc2nc(-c3ccc(F)cc3)cs2)cc1OC -2.16%
Cc1sc(N/N=C/c2cccnc2)nc1-c1ccccc1 -4.09%
CCOc1ccc2nc(NC(=O)CS(=O)(=O)c3ccccc3)sc2c1 2.76%
CS(=O)(=O)N(Cc1ccccc1)c1ccc(C(=O)N2CCN(c3cccc(Cl)c3)CC2)cc1 2.28%
CCSc1ccc(C(=O)Nc2ccc(Br)cn2)cc1[N+](=O)[O-] 1.58%
Cc1cccc(OCC(=O)Nc2nc3ccc([N+](=O)[O-])cc3s2)c1C 2.41%
COc1cccc(C(=O)Nc2ccc(NC(=O)C3CCCCC3)nc2)c1 -1.05%
CCOc1ccc(C2NC(=O)c3ccccc3O2)cc1OC (configuration not stated) 2.7%
COc1ccc(N2CCN(c3ncnc4sc(C(=O)NCC5CCCO5)c(C)c34)CC2)cc1 (configuration not stated) 1.47%
CC1CCN(S(=O)(=O)c2nnc(NC(=O)c3cccc([N+](=O)[O-])c3)s2)CC1 0.131%
CCCCCc1c2c(cc(O)c1C(=O)O)OC(=O)c1c(cc(OC)cc1C(=O)CCCC)O2 0.38%
Cc1ccc(NC(=O)Nc2ccc3c(c2)OCO3)c(OC(F)F)c1 -1.96%
Cc1ccc(C2=NS(=O)(=O)N(C)C(C(=O)NCc3ccc(F)cc3)=C2)cc1 1.7%
C=CCN1C(=O)/C(=C/c2ccc(OC(C)=O)c(OCC)c2[N+](=O)[O-])SC1=S 1.82%
O=C(Nc1ccc(C(=O)NCc2ccccc2Cl)cc1)C1=CSCCO1 0.338%
CNS(=O)(=O)c1cccc(C(=O)OCC(=O)N2c3ccccc3NC(=O)C2(C)C)c1 3.43%
Cc1cccc(-c2noc(CN(C)C(=O)c3ccco3)n2)c1 0.022%
COc1ccccc1C(=O)COC(=O)/C=C/c1ccccc1 -1.25%
CN(C)C(=O)[C@H]1C[C@H]1[C@@H](O)[C@H](CO)NC(=O)[C@H](COCc1ccccc1)NC(=O)OC(C)(C)C 3.51%
CC(C)c1cc(=O)n2[nH]c(SCc3ccccc3)nc2n1 3.15%
COc1cc(NS(=O)(=O)c2ccc(NC(=O)c3ccc(F)cc3)cc2)ncn1 -2%
Cc1cc(C)n2c(C)nnc2c1 0.721%
CN(C)/C=C(/C(=O)c1ccc(Cl)cc1)S(=O)(=O)c1ccc(Cl)cc1 2.4%
CC(=O)NC1=C(Nc2ccc(N(C)C)cc2)C(=O)c2ccccc2C1=O -3.23%
Cc1cc(C)c(-c2csc(NC(=O)/C=C/c3cccs3)n2)c(C)c1 -2.02%
NS(=O)(=O)c1ccc(CNC(=O)CCS(=O)(=O)Cc2ccccc2)cc1 1.46%
CC1CN(C(=O)CCn2c(=O)oc3ccccc32)CC(C)O1 (configuration not stated) 2.68%
Cc1ccc(CCNC(=O)CN2C(=O)COc3ccc(S(=O)(=O)N4CCC(C)CC4)cc32)cc1 1.81%
Clc1ccc(CCNc2ncnc3nc[nH]c23)cc1 -2.95%
COc1ccc(OC)c(NC(=O)c2cc(S(=O)(=O)NCc3ccco3)ccc2F)c1 -2.65%
COc1cc([N+](=O)[O-])cc(/C=C2/SC(=S)N(Cc3ccccc3)C2=O)c1O -3.99%
Clc1ccc2c(c1)-c1nnc(Br)n1-c1ccccc1S2 -0.905%
NC(=O)NC[C@@H]1CC[C@@H](Cc2ccc(-c3ccccc3)cc2)O1 1.14%
COc1ccc(-n2nnnc2SCC(=O)NC2CCCC2)cc1OC 3.12%
O=S(=O)(c1cccs1)N1CCN(CC(O)COc2cc(Cl)ccc2Cl)CC1 (configuration not stated) -6.11%
Cc1cc(C)c(S(=O)(=O)c2c(C)cccc2C)c(Cl)n1 -0.523%
COC(=O)CN1C(=O)COc2ccc(S(=O)(=O)N3CCCC3)cc21 1.86%
O=C(Nc1ncc(S(=O)(=O)c2ccc([N+](=O)[O-])cc2)s1)c1ccc2ccccc2c1 -3.12%
COc1ccc(NC(=O)c2ccc3ccccc3n2)cc1S(=O)(=O)Nc1ccccc1Cl 1.67%
CCn1nnc2cc(C(=O)NCC(c3ccccc3OC)N(C)C)ccc21 (configuration not stated) 0.025%
CCCCCCSc1nsc(NC(C)=O)n1 2.54%
Cc1ccc2oc(=O)c3cnn(CC(=O)N4CCN(c5ccccc5)CC4)c3c2c1 -2.35%
Cc1occc1-c1nnc(SCC(=O)Nc2nc(C(C)(C)C)cs2)o1 -0.969%
Cc1ccc2nc(NC(=O)C3CCN(S(=O)(=O)c4cc([N+](=O)[O-])ccc4Cl)CC3)sc2c1 -5.86%
O=c1cc(-c2ccccc2)nc2c(-c3ccccc3)c(C(F)(F)F)[nH]n12 1.06%
COc1cnc(SCc2ccc(Cl)cc2Cl)nc1Cl 1.36%
CC(CNC(=O)c1cc(COc2ccc3ncccc3c2)on1)c1ccccc1 (configuration not stated) -4.02%
O=C(Nc1ncc(S(=O)(=O)c2ccc([N+](=O)[O-])cc2)s1)c1ccccc1F -0.0884%
CN(Cc1ccco1)S(=O)(=O)c1nnc(NC(=O)c2cccc(Cl)c2)s1 -0.337%
Cc1cc2cc(CCNC(=O)c3ccc(S(=O)(=O)N4CCCC4)cc3)c(=O)[nH]c2cc1C 0.149%
CC(=O)Oc1c(I)cc(I)cc1C(=O)Nc1ccc(Cl)cc1 -3.87%
CN1CCN(C2=CC3=CC(=C(C#N)C#N)CCC3CC2)CC1 (configuration not stated) 0.754%
CC(=O)Nc1nc(C)c(Oc2ccc(C)cc2)c(=O)[nH]1 -1.56%
CCCC(=NC(C)CC)C1=C(O)CC(c2ccccc2)CC1=O (configuration not stated) -1.47%
COC(=O)c1ccc(C2N=C(c3cccs3)CC(c3ccccc3O)N2)cc1 (configuration not stated) -2.24%
Cc1[nH]n(-c2ccccc2)c(=O)c1N=Nc1c(O)cc(S(=O)(=O)N(C)C)c2ccccc12 -1.94%
c1ccc2c(Cn3nnc4ccccc43)cccc2c1 2.75%
Nc1ncc(Br)cc1S(=O)(=O)Nc1cc(C(F)(F)F)cc(C(F)(F)F)c1 -6.89%
CCOc1ccc(N(CC(=O)NCc2ccc(F)cc2)C(=O)CCC(=O)Nc2nccs2)cc1 1.3%
CN(C)c1nc(=S)nc(NCc2ccccc2)[nH]1 0.716%
COCC(=O)N1CCC(n2nccc2NC(=O)c2ccccc2OC)CC1 1.78%
O=C(Nc1nc(-c2cccs2)cs1)c1cccc(S(=O)(=O)N2CCCCCC2)c1 -3.67%
COC(=O)c1ccc(O)c(Sc2cc(C(=O)OC)ccc2O)c1 -1.81%
COc1ccc(Br)cc1/C=N/NC(=O)CN1CCCCC1 2.34%
O=C1/C(=C\c2cc([N+](=O)[O-])ccc2O)SC(=S)N1Cc1ccc(Cl)cc1 -1.59%
COC(=O)c1sc(-c2ccc(Cl)cc2)cc1NC(=O)/C=C/C(=O)O -4.96%
O=C(Nc1ccn(-c2ccccc2)n1)c1ccc(S(=O)(=O)N2CCCCCC2)cc1 0.221%
O=C(O)c1ccc(S(=O)(=O)/N=C2\C=C(Nc3ccccc3F)C(=O)c3ccccc32)cc1 0.79%
C=C(C)C(=O)OCC(O)COc1ccc(C(C)(C)c2ccc(OCC(O)COC(=O)C(=C)C)cc2)cc1 (configuration not stated) -3.03%
O=C(N1CCN=C1SCc1cccnc1)C12CC3CC(CC(C3)C1)C2 -1.74%
CCCOc1ccc(-c2cc(C(=O)NCC3CCCO3)c3ccccc3n2)cc1 (configuration not stated) -3.23%
O=C(CCC(=O)Nc1ccccc1)N/N=C/c1ccncc1 0.327%
Cc1cccc(OCCCCc2c(C)n[nH]c2C)c1C -0.833%
Cc1ccccc1C(=O)N1CCN(c2ccc(NC(=O)CSc3ccc(Cl)cc3)cc2)CC1 -5.18%
CC(C)C[C@H](N)c1nnc(S(=O)(=O)Cc2ccc(F)cc2)o1 -0.792%
COc1ccc(C(=O)Nc2ccc(Cl)c(S(=O)(=O)Nc3ccccc3OC)c2)cc1 -6.58%
COC(=O)Cn1c(=NC(=O)CSC(C)=O)sc2ccccc21 -1.47%
CN(Cc1ccco1)S(=O)(=O)c1csc(C(N)=O)c1 0.618%
O=C(CSc1n[nH]c(=O)n1C1CC1)c1ccc2c(c1)OCCO2 -0.0714%
O=C(CSc1ccc2nnc(CCNC(=O)c3ccccc3)n2n1)NCc1ccc(F)cc1 3.18%
C1=C(CCNc2ncnc3c2[nH]c2ccccc23)CCCC1 -9.93%
O=C(Nc1nnc(SCc2ccc(Cl)cc2Cl)s1)C1COc2ccccc2O1 (configuration not stated) 1.21%
CC(C)S(=O)(=O)C1=NSC2=NC(=O)/C(=C\c3ccc(-c4ccccc4)o3)C(=N)N21 1.39%
C=CCSc1nsc(NC(=O)Nc2ccc(F)cc2)n1 -3.33%
O=C(c1cccs1)c1ccc(-c2cccs2)s1 -4.26%
COc1ccccc1N1C(=O)c2cccc3c(Cl)ccc(c23)C1=O -0.929%
O=C(Nc1cccc(Cl)c1)c1cc(N=Nc2ccc([N+](=O)[O-])cc2Cl)ccc1O -2.02%
COc1ccccc1N1CCN(c2nc(C)nc3c2oc2ccccc23)CC1 1.31%
CCOC(=O)CCS(=O)(=O)c1nc(-c2ccccc2)cc(C(F)(F)F)n1 0.21%
Cc1ccc(C)c(N2CCN(C(=O)CCS(=O)(=O)c3ccc4c(c3)CCN4C(=O)C3CC3)CC2)c1 0.0752%
Cc1ccc(NC(=O)Cn2ncc3c([nH]c4ccccc43)c2=O)cc1Cl -0.148%
COc1ccc(NS(=O)(=O)c2cccc(NC(=O)C3=NN(c4ccccc4)C(=O)CC3)c2)cc1 -2.7%
COc1cc(C(=O)NCCNC(=O)c2cnccn2)cc(OC)c1OC 1.01%
Cc1[nH]n(C)c(=O)c1C(=O)c1c(-c2c(Cl)cccc2Cl)noc1C 3.14%
O=[N+]([O-])c1cc(Br)c(O)c(/C=N/Nc2nc3ccccc3s2)c1 -0.562%
O=C(Nc1ccc(Oc2ccc(Cl)cc2)c(Cl)c1)c1cc(I)cc(I)c1O -0.309%
Cc1cc(-n2c(C)cc(C(=O)CSc3[nH]c(=O)cc(C(F)(F)F)c3C#N)c2C)no1 2.79%
CN(C)c1ccc(NC(=O)Oc2ccccc2)cc1 0.835%
